# Measurements as given in publication PMC12136788.
# The list shows a part of the results.
# B1: chr17:60770872:60770873:+_ENSG00000011028_ENST00000303375|hu_hu|hu_hu_hu_mus_True|38_88 (ssRNA)
# RNA: GGGAGUUCUACAGUCCGACGAUCUCUUUAAAAAAAAAAAAAAAAAGUUUAAAAACAAUAGCACAUUUCGAGAAUCAAGAACUACAAUAGAGGGUCCAUGUCUUCGAUUUGUUCACAUCGUCCUGCACUGGGACACGGGGACUGCAACAGAGGAUUGAGCAUCA
# B2: chr2:160775391:160775392:-_ENSMUSG00000057133_ENSMUST00000039782|mus_mus|motif|central (ssRNA)
# RNA: GGGAGUUCUACAGUCCGACGAUCGAUGAGUCCAGGAGACACUCCUGGGAUGAGAAAUGGGUUGAAAGCCACAGGACGGCGGGUAGUUAUUGUGGGUUCUGACUGAUCAGAAAACGGACUAGGGCCAGGCUUGUCGUCUACCAGCAACAGAGGAUUGAGCAUCA
# B3: chr11:69795057:69795058:+_ENSMUSG00000018559_ENSMUST00000108593|mus_mus|FALSE|FALSE (ssRNA)
# RNA: GGGAGUUCUACAGUCCGACGAUCAUAUCGAACAGUCUGAUACUGAAUUACCGUGCGGAUCUGCCUCCGCAAAAGGUAAAUAAAGAAGCUCCAGAGCUUGGCGGCGAAGGCCACGAACGUGCGCAGCCCCAGCAGACACUGCGUCAACAGAGGAUUGAGCAUCA
# B4: chr3:97503841:97503842:+_ENSG00000113966_ENST00000463745|hu_mus|FALSE|FALSE (ssRNA)
# RNA: GGGAGUUCUACAGUCCGACGAUCAUCUGGGUGAUUCAGAAGGGUAUCAAGCUCUUCUUUGGCCACAACCAUUCUUAACUUAUCACUACUAUCAAUGACAAAAAUAAUGGCUUGUCCAUCUUUAUAAUAGUGUUCCCAGAGAUUCAACAGAGGAUUGAGCAUCA
# B5: chr16:94690093:94690094:+_ENSMUSG00000040785_ENSMUST00000117648|mus_hu|mus_mus_mus_hu_True|8_8 (ssRNA)
# RNA: GGGAGUUCUACAGUCCGACGAUCGGGCUGGGAUGACGGACACACAGCCUCGAUUCCAGGGGGAAAAAGUCUUAGUCGAUACUAAUUAAAAAGUGUUAAUGAUUUUUGAAAAUCAGAUUACAUCUAUUUGAAUCAUAAAGCAAACAACAGAGGAUUGAGCAUCA
# B6: chr4:25749455:25749456:-_ENSG00000091490_ENST00000264868|hu_hu|hu_hu_hu_mus_False|38_68 (ssRNA)
# RNA: GGGAGUUCUACAGUCCGACGAUCGCACUAUGACCUCUAGAAAAAUCCACAGGGGGAAAAAAUGUAAACCAAUUUACAAUGUUAUCGCCUUCCCUGUAUUUCCAGGCUUUGUCUCAAGGCUCCUUCUAGCUGCUGGAUUUGGGACAACAGAGGAUUGAGCAUCA
# B7: 17452503_17452623_484_5pUTR_ENSMUSG00000006134_ENSMUST00000006293|mouse|control|control (ssRNA)
# RNA: GGGAGUUCUACAGUCCGACGAUCGGCCCCAUGUACCAGGCAGAGCGGUCUGAAGAAUCAAACCUGGCGGAGGACAUGGUGUUGGGCUCGGGGAUGGGCGGCGUCUGCGGCUCUCUUGCUUGGGAAGCCUUUACCCGCUGUCGGCAACAGAGGAUUGAGCAUCA
# B8: 38655397_38655517_4628_CDS_ENSG00000105738_ENST00000222345|human|control|control (ssRNA)
# RNA: GGGAGUUCUACAGUCCGACGAUCCCCCGCCAGUCCCGUGGGGGUGCUGGAGCCGGAGGAGUACAGCUUCGGUCGGUAGCCCUUGCUUUGGCCGGCAACUGCGGGGGCAGGGGAGACCUCCCGCCGCCUGUCUGCGUGGUGGGACAACAGAGGAUUGAGCAUCA
# B9: chr8:87798904:87798905:-_ENSMUSG00000031696_ENSMUST00000034131|mus_hu|FALSE|FALSE (ssRNA)
# RNA: GGGAGUUCUACAGUCCGACGAUCAAAAUAUUGUUGUAAGUGUCAACUGGUAUUUUCAAAAGUCUGGUGAGUUCCUUUGAAACUGCACUACUGGUAGCAAUAUGUUCAAGGUUGAGCUUAUUGAAUAUCUCCACUGUUGUUUCUCAACAGAGGAUUGAGCAUCA
# B10: 87925773_87928352_424_CDS_ENSG00000188994_ENST00000369577|human|control|control (ssRNA)
# RNA: GGGAGUUCUACAGUCCGACGAUCUUCACAGCUGCCAUUCUCCAUCAGCUUUUCAUGAGCUACCUGCACCAGUGUCUGAAAUUGUUCCCACUGUUUAUCUGAUAACUCAACAGGCAGACACAGUAAAAGUUCAACACAGCUUAACAACAGAGGAUUGAGCAUCA
# B11: chr11:18503389:18503390:-_ENSG00000074319_ENST00000251968|hu_hu|hu_hu_hu_mus_True|48_108 (ssRNA)
# RNA: GGGAGUUCUACAGUCCGACGAUCAUUUUCCAUUUUUUCCAGAGCAGAACUUAGUUCUUCAUCCUUCUUUUUCAAAAGUUCUAUGUUUUUAUCAACCUCAGCUACUUCUUGAUCUAAGCGGGUGACCAUCUCUUCCAGUUUCUGCAACAGAGGAUUGAGCAUCA
# B12: 78478775_78478895_569_CDS_ENSG00000162616_ENST00000370763|human|control|control (ssRNA)
# RNA: GGGAGUUCUACAGUCCGACGAUCUUCUUCAGAAUCUCUACCACCACCCAUUCGUCUUCCAAAGAAAAUUUCAAAGGGGUUGGACCCUCCGAAAAAUGCAGCAAAUGUAGCAUGAGGAUCGCCAUGAAAGGUGUACCGGAAGGUCAACAGAGGAUUGAGCAUCA
# B13: chr13:42874254:42874255:+_ENSG00000023516_ENST00000025301|hu_hu|FALSE|FALSE (ssRNA)
# RNA: GGGAGUUCUACAGUCCGACGAUCUCCACCAAUAUCUGUUUGGCAAAAACAUUCAGCUGGAGUACAGCCUCCAAGAGGACUAAAAGCAGAGGAUCGAAUAGGACUAAAUAAACCACUAUCUUCCCUUGAUGCCUUCACUGGGCGCAACAGAGGAUUGAGCAUCA
# B14: chr18:59899606:59899607:+_ENSG00000134444_ENST00000256858|hu_hu|FALSE|FALSE (ssRNA)
# RNA: GGGAGUUCUACAGUCCGACGAUCUCCCAGCAUUAACAUAACGCUUUUUUCACUGUCUGCAAUACGAGACACCUCGUAUCCUAAACGACUAUCUGCUGACAUUCGACAAAAAGAGAGUAGUGCUUGAUGGAAUGCAGGAGACAACAACAGAGGAUUGAGCAUCA
# B15: 59820218_59820338_214_3pUTR_ENSMUSG00000035469_ENSMUST00000043227|mouse|control|control (ssRNA)
# RNA: GGGAGUUCUACAGUCCGACGAUCCGCCGCACACCUGGGGGAAGCGCCCGCAAGACGGAAUCCGCGGGUGCCCGGUGCGGGGUGCGCGUCGCCGGGGAGUCGCGAACGCGCCUGGUGCGCACGGCCCUCGGGAGGGCGCGGACUCAACAGAGGAUUGAGCAUCA
# B16: 44721345_44733441_1335_CDS_ENSG00000105953_ENST00000222673|human|control|control (ssRNA)
# RNA: GGGAGUUCUACAGUCCGACGAUCGUCGGUGGUGAAGCCGAUCUGGUUGUUGACGACCACGUGCACGGUGCCAUGAGUUGUGUAGGAUGGCAGGUCGCUGAGGUGGAAGGUCUCGUACACAAUGCCCUGGCCAGCAAAUGCAGCCAACAGAGGAUUGAGCAUCA
# B17: chr6:41757443:41757444:+_ENSG00000214736_ENST00000398881|hu_mus|hu_hu_hu_mus_False|28_108 (ssRNA)
# RNA: GGGAGUUCUACAGUCCGACGAUCGAACUGUCUGCUGGCAACAUCUCAGCCGACACUGGGGGAUGGGGGGGCAGUGGGGGGGGGUUCAGGCAAGGAGAGGGAGUCAACCCAUCUGAACACUCAGGUAGGAUCUUGUGGUCACAGCAACAGAGGAUUGAGCAUCA
# B18: 235950199_235950319_1250_CDS_ENSG00000130147_ENST00000392011|human|control|control (ssRNA)
# RNA: GGGAGUUCUACAGUCCGACGAUCCAAGUCCAGGUCGUGGCAAGACCGGGCCAGCUUCCUGUGGUUUAGCCAGGCAGUUCGAAAAUCCUCCCGGCUCUGAAAUUGCUCGGGGGCAGGUGAUUUCAAGCCGGUGAAGAAACUCGACAACAGAGGAUUGAGCAUCA
# B19: chr1:151007788:151007789:+_ENSG00000143363_ENST00000271620|hu_hu|motif|central (ssRNA)
# RNA: GGGAGUUCUACAGUCCGACGAUCUGGGUCAACACGCCAUGAACCACACCCCUAUUCGUGCUACAUGAGGCUGAGUCCUUGCGGCAACCACACAGAAAUACAGACAAUCAAGUGAACCUGAGCACCCCCAGGGAUAACAGAAGACAACAGAGGAUUGAGCAUCA
# B20: chr10:84155644:84155645:+_ENSMUSG00000034453_ENSMUST00000077175|mus_hu|FALSE|FALSE (ssRNA)
# RNA: GGGAGUUCUACAGUCCGACGAUCACUAUAGCUCAUCACAGCAACUGUUGCAUUCUGUCCAGCUGGCAGUUUCUCAAAUUCUAUCAAUUCAAUGGUUUUUGUCUUAACCAUGGGUUUUUGUGGAUAUGCUAGUAGAUACAUGAGCAACAGAGGAUUGAGCAUCA
# B21: chr8:48874918:48874919:+_ENSG00000104738_ENST00000523944|hu_hu|FALSE|FALSE (ssRNA)
# RNA: GGGAGUUCUACAGUCCGACGAUCAUUUACAUCUGUUCCCCAGAUCACAAGUUUUUGGCCUAGAGACUGCUCACUUGCCACUAUAUCUUCUGCUGCUGCCCCGUCAGACUGCAGAUCCACUUGCAGGCCCUUCUGUGCAGAGCCCAACAGAGGAUUGAGCAUCA
# B22: chr2:198351390:198351391:-_ENSG00000144381_ENST00000345042|hu_hu|hu_hu_hu_mus_False|1_88 (ssRNA)
# RNA: GGGAGUUCUACAGUCCGACGAUCUCAUUCCCACCCUCCACAGAAAGGCUGCUUAACAACUCUCAUGUGGUGACACAGCGCUACAGUCCUGAUGCUCACAGAACAGUAGAGAUGCCUCAGUGAUUUAAGUUGAAAGCAGCAGUACAACAGAGGAUUGAGCAUCA
# Target: T1, UNK ZnF1-3 (human, UniProt Q9C0B0 31-174)
# T1 sequence: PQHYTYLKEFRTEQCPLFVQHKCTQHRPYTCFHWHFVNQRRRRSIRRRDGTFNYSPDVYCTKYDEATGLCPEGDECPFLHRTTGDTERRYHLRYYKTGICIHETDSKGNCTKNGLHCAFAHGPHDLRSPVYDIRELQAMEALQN
# Experiment: nsRBNS (natural sequence RNA bind-n-seq); RBNS binding buffer (assumed for nsRBNS): 25 mM Tris pH 7.5, 150 mM KCl, 3 mM MgCl2, 0.01% Triton X-100, 500 ug/ml BSA, 20 U/ml SUPERase-In, 4 C; UNK is unkempt and MSI1 is Musashi-1; names of the RNAs are library labels; protein concentration not given here; high values mean tight binding
row,Binder,binding signal [enrichment R]
1,B1,3.19
2,B2,1.35
3,B3,0.482
4,B4,0.806
5,B5,0.671
6,B6,1.04
7,B7,0.729
8,B8,0.545
9,B9,0.832
10,B10,1.04
11,B11,0.466
12,B12,1.17
13,B13,1.43
14,B14,0.842
15,B15,0.352
16,B16,0.508
17,B17,2.16
18,B18,0.823
19,B19,1.79
20,B20,1.05
21,B21,0.735
22,B22,0.953
